Experimental data: PMC9911399, “Two distinct binding modes provide the RNA-binding protein RbFox with extraordinary sequence specificity”
Numbering of substitutions follows the chain as printed; changes in the protein carry UniProt numbers. This is one part of the list.

T1: RBFOX1 RRM (Homo sapiens, UniProt Q9NWB1 109-208)
T1 sequence: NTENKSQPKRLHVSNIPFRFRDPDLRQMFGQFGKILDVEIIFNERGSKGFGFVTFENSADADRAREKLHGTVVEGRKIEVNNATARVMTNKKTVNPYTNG

B1: UUUAUUG (DNA:RNA)
RNA: GGGAGACCGGAAUUCAGAUUGUCCUUUAUUGUUAAAUCCCGUCGUAGCCACCA
DNA 1: CAATCTGAATTCCGGTCTCCC
DNA 2: TGGTGGCTACGACGGGATT
B2: UGCUGGA (DNA:RNA)
RNA: B1 RNA with U26G, U27C, A28U, U29G, U30G, G31A
DNA 1: CAATCTGAATTCCGGTCTCCC
DNA 2: TGGTGGCTACGACGGGATT
B3: ACCGGAA (DNA:RNA)
RNA: GGGAGACCGGAAUUCAGAUUGUCCACCGGAAUUAAAUCCCGUCGUAGCCACCA
DNA 1: CAATCTGAATTCCGGTCTCCC
DNA 2: TGGTGGCTACGACGGGATT
B4: UGAUUGG (DNA:RNA)
RNA: B1 RNA with U26G, U27A, A28U, U30G
DNA 1: CAATCTGAATTCCGGTCTCCC
DNA 2: TGGTGGCTACGACGGGATT
B5: CACCCUA (DNA:RNA)
RNA: B3 RNA with A25C, C26A, G28C, G29C, A30U
DNA 1: CAATCTGAATTCCGGTCTCCC
DNA 2: TGGTGGCTACGACGGGATT
B6: UUAAGAU (DNA:RNA)
RNA: B1 RNA with U27A, U29G, U30A, G31U
DNA 1: CAATCTGAATTCCGGTCTCCC
DNA 2: TGGTGGCTACGACGGGATT
B7: AUCACAG (DNA:RNA)
RNA: B3 RNA with C26U, G28A, G29C, A31G
DNA 1: CAATCTGAATTCCGGTCTCCC
DNA 2: TGGTGGCTACGACGGGATT
B8: CAGCUAU (DNA:RNA)
RNA: B3 RNA with A25C, C26A, C27G, G28C, G29U, A31U
DNA 1: CAATCTGAATTCCGGTCTCCC
DNA 2: TGGTGGCTACGACGGGATT
B9: AGCGUUU (DNA:RNA)
RNA: B3 RNA with C26G, G29U, A30U, A31U
DNA 1: CAATCTGAATTCCGGTCTCCC
DNA 2: TGGTGGCTACGACGGGATT
B10: UAAGACG (DNA:RNA)
RNA: B1 RNA with U26A, U27A, A28G, U29A, U30C
DNA 1: CAATCTGAATTCCGGTCTCCC
DNA 2: TGGTGGCTACGACGGGATT
B11: AAAACAU (DNA:RNA)
RNA: B3 RNA with C26A, C27A, G28A, G29C, A31U
DNA 1: CAATCTGAATTCCGGTCTCCC
DNA 2: TGGTGGCTACGACGGGATT
B12: CACUGGA (DNA:RNA)
RNA: B3 RNA with A25C, C26A, G28U, A30G
DNA 1: CAATCTGAATTCCGGTCTCCC
DNA 2: TGGTGGCTACGACGGGATT
B13: UAUAUCA (DNA:RNA)
RNA: B1 RNA with U26A, U30C, G31A
DNA 1: CAATCTGAATTCCGGTCTCCC
DNA 2: TGGTGGCTACGACGGGATT
B14: AACCAGG (DNA:RNA)
RNA: B3 RNA with C26A, G28C, G29A, A30G, A31G
DNA 1: CAATCTGAATTCCGGTCTCCC
DNA 2: TGGTGGCTACGACGGGATT
B15: UAUUCCU (DNA:RNA)
RNA: B1 RNA with U26A, A28U, U29C, U30C, G31U
DNA 1: CAATCTGAATTCCGGTCTCCC
DNA 2: TGGTGGCTACGACGGGATT
B16: CACACUA (DNA:RNA)
RNA: B3 RNA with A25C, C26A, G28A, G29C, A30U
DNA 1: CAATCTGAATTCCGGTCTCCC
DNA 2: TGGTGGCTACGACGGGATT
B17: UGACUGG (DNA:RNA)
RNA: B1 RNA with U26G, U27A, A28C, U30G
DNA 1: CAATCTGAATTCCGGTCTCCC
DNA 2: TGGTGGCTACGACGGGATT
B18: CAGCGGC (DNA:RNA)
RNA: B3 RNA with A25C, C26A, C27G, G28C, A30G, A31C
DNA 1: CAATCTGAATTCCGGTCTCCC
DNA 2: TGGTGGCTACGACGGGATT
B19: CACGAAA (DNA:RNA)
RNA: B3 RNA with A25C, C26A, G29A
DNA 1: CAATCTGAATTCCGGTCTCCC
DNA 2: TGGTGGCTACGACGGGATT
B20: GGCGAGC (DNA:RNA)
RNA: B3 RNA with A25G, C26G, G29A, A30G, A31C
DNA 1: CAATCTGAATTCCGGTCTCCC
DNA 2: TGGTGGCTACGACGGGATT

molecular target: T1, RBFOX1 RRM; experiment: EMSA; HiTS-Eq, 1 nM pool, 10 min; buffer printed only for the single-RNA assays: 10 mM Tris pH 7.5, 150 mM NaCl, 3.4 mM EDTA, 0.001% NP-40, 30 C; conditions: tags: His6 N-terminal (pET28a); label: 5' 32P
Outline: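 Relative association constants, normalised to the cognate motif, were derived by comparing read counts of each RNA species with those of the control reaction. The RNA sequenced was the free fraction, separated by 8% native PAGE after a 10 min equilibration in 50 µL of 1 nM 5′-radiolabelled RNA (7 randomized nucleotides) with increasing concentrations of purified wild-type or mutant RbFox RRM.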

Binder | binding signal
B1 | 0.0179 KA relative to UGCAUGU
B2 | 0.0106 KA relative to UGCAUGU
B3 | 0.00123 KA relative to UGCAUGU
B4 | 0.0223 KA relative to UGCAUGU
B5 | 0.000228 KA relative to UGCAUGU
B6 | 0.0109 KA relative to UGCAUGU
B7 | 0.0025 KA relative to UGCAUGU
B8 | 0.00303 KA relative to UGCAUGU
B9 | 0.00998 KA relative to UGCAUGU
B10 | 0.00786 KA relative to UGCAUGU
B11 | 0.00106 KA relative to UGCAUGU
B12 | 0.00963 KA relative to UGCAUGU
B13 | 0.00945 KA relative to UGCAUGU
B14 | 0.00428 KA relative to UGCAUGU
B15 | 0.00296 KA relative to UGCAUGU
B16 | 0.000688 KA relative to UGCAUGU
B17 | 0.0284 KA relative to UGCAUGU
B18 | 0.00856 KA relative to UGCAUGU
B19 | 0.00287 KA relative to UGCAUGU
B20 | 0.0238 KA relative to UGCAUGU
